# Test results reported in PubChem BioAssay AID360 (National Center for Advancing Translational Sciences (NCATS), 2006).
# Screen size: about 48,000 compounds; about 550 (1.1%) were called active. Roughly 4% stayed inconclusive and do not appear here. Rule as the data show it: active = potency below about 15 µM; inconclusive = mostly about 16 µM to 33 µM; inactive = weaker than that. Some of the results follow.
# Target: Lysosomal acid glucosylceramidase (Homo sapiens) (UniProt P04062)
# Test: Glucocerebrosidase;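 also: the screen sought inhibitors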
# Conditions: purified enzyme, resorufin glucoside fluorescence (screen aimed at inhibitors), 20 min
# Outline: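 Normal human glucocerebrosidase (0.2 nM final) was assayed with resorufin β-D-glucopyranoside (30 uM final) in 50mM citric acid/KH2PO4, 10mM sodium taurocholate, 0.01% tween-20, pH 5.9. Compounds were titrated; fluorescence (Ex 548, Em 600) read after 20 min at RT.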
# Potency is read from the fitted curve at half-maximal effect.
# Sequence of UniProt P04062 (P04062 whole entry, looked up): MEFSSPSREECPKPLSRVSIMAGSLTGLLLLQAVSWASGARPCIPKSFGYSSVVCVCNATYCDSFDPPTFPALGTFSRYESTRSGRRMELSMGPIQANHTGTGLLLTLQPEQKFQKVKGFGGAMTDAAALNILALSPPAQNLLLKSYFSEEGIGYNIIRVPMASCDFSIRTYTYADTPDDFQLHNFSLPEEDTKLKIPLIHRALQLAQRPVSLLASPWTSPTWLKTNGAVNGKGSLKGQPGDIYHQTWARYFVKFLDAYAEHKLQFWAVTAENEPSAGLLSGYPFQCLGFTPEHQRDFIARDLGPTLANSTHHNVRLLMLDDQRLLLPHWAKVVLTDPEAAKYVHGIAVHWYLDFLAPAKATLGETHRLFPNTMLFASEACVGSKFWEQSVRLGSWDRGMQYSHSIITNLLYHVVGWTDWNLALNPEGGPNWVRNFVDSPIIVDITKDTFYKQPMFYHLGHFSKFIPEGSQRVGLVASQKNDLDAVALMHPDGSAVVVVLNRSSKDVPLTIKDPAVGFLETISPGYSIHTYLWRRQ
row,SMILES,Potency
1,CCOC(=O)c1c(NC(=O)c2ccn(CC)n2)sc2c1CCCC2,inactive
2,Cc1c(C(=O)N2CC(C)OC(C)C2)sc2nc(-c3ccc(F)cc3)cn12 (centres undefined),inactive: > 76.9 µM
3,COc1ccc(OC)c(C(O)c2nc3ccccc3n2C(C)C)c1 (centres undefined),inactive: > 76.9 µM
4,O=C(c1cccc2ccccc12)N1CCN(CC2CC=CCC2)CC1 (centres undefined),inactive: > 76.9 µM
5,O=C1c2oc3ccccc3c(=O)c2C(c2cccnc2)N1CCCN1CCOCC1 (centres undefined),inactive: > 76.9 µM
6,Cn1c(SCC(=O)NCCc2ccccc2)nnc1-c1ccncc1,inactive: > 76.9 µM
7,Cc1cc2n(n1)C(c1c[nH]c3ccccc13)Nc1ccccc1-2 (centres undefined),inactive: > 76.9 µM
8,Cc1ccc(OCc2nnc(SCC(=O)c3ccccc3)n2Cc2ccco2)cc1,inactive: > 76.9 µM
9,Cc1nc2ncnn2c(C)c1CCC(=O)Oc1ccccc1,inactive: > 76.9 µM
10,COC(=O)Cn1c2ccccc2c2nc(C)sc21,inactive: > 76.9 µM
11,Cc1ccnc(NC(=O)CCC(=O)N(CC(=O)NCCc2ccccc2)Cc2ccco2)c1,inactive: > 76.9 µM
12,CCOC(=O)C1CCN(CC(O)COc2ccc(C(C)(C)CC)cc2)CC1 (centres undefined),inactive: > 76.9 µM
13,CCCC(=O)n1nc(-c2ccc(Cl)cc2)nc1SC,inactive: > 76.9 µM
14,O=C(C1CCN(C2CC(=O)N(c3cccc(Cl)c3)C2=O)CC1)N1CCCC1 (centres undefined),inactive: > 76.9 µM
15,CCCC(=O)NC(Nc1ccc(S(=O)(=O)Nc2cc(C)on2)cc1)(C(=O)OCC)C(F)(F)F (centres undefined),inactive: > 76.9 µM
16,Oc1ccc(CN2CCCCC2)nc1-c1ccccc1,inactive: > 76.9 µM
17,CCN(CC(=O)NCCc1ccc(S(N)(=O)=O)cc1)Cc1nc2ccccc2c(=O)[nH]1,inactive: > 76.9 µM
18,Cc1ccc(-c2nn3c(C)nnc3s2)cc1NCc1c(F)cccc1Cl,inactive: > 76.9 µM
19,CCOC(=O)C1CCN(C(=O)CSCCSCC(=O)N2CCC(C(=O)OCC)CC2)CC1,inactive: > 76.9 µM
20,Cc1ccn2cc(C(=O)Nc3ccc4c(c3)OCCO4)nc2c1,inactive: > 76.9 µM
21,O=c1cc(N2CCc3ccccc3C2)[nH]c(=O)n1-c1ccc(Br)cc1,inactive: > 76.9 µM
22,CC(=O)Nc1cc(C(F)(F)F)ccc1N1CCOCC1,inactive: > 76.9 µM
23,O=C(COC(=O)c1ccccc1)NCC1CCCO1 (centres undefined),inactive: > 76.9 µM

row,SMILES,Potency
1,CCOc1ccccc1NC(=O)CSc1nnc(-c2cnccn2)n1C,inactive: > 76.9 µM
2,COc1ccccc1CNC(=O)CCS(=O)(=O)c1cccs1,inactive: > 76.9 µM
3,COc1ccc(NC(=O)Cn2nc(C(F)(F)F)c3c2CCCC3)c(OC)c1,inactive: > 76.9 µM
4,COc1ccc(C2C(C(=O)N3CCOCC3)=C(C)NC3=C2C(=O)CC(C)(C)C3)cc1O (centres undefined),inactive: > 76.9 µM
5,CCOC(=O)C1CCN(C(=O)CSc2cc(=O)n(CC)c3ccccc23)CC1,inactive: > 76.9 µM
6,O=C(c1cc2cc(Br)ccc2oc1=O)N1CCN(c2ccccn2)CC1,inactive: > 76.9 µM
7,C=CCn1cc(C(=O)NCCOC)c(=O)c2cc(S(=O)(=O)N(CC)CC)ccc21,inactive: > 76.9 µM
8,COc1ccc2cc(CCNC(=O)CC(C)(C)C)c(=O)[nH]c2c1,inactive: > 76.9 µM
9,Cc1ccc(NC(=O)CSc2nccc(=O)[nH]2)c(S(=O)(=O)N2CCOCC2)c1,inactive: > 76.9 µM
10,Brc1cnn(-c2nc(N3CCOCC3)nc(N3CCOCC3)n2)c1,inactive: > 76.9 µM
11,CCCC(=O)Nc1ccc(NC(=O)c2ccccn2)cn1,inactive: > 76.9 µM
12,CCOc1cc(S(=O)(=O)N2CCN(c3ccc(F)cc3)CC2)c(OCC)cc1-n1cnnn1,inactive: > 76.9 µM
13,CS(=O)(=O)N(CC(=O)N1CCCCCC1)c1ccc(Br)cc1,inactive: > 76.9 µM
14,COc1cccc(-c2csc3nnc(SCC(=O)NCc4cccs4)n23)c1,inactive: > 76.9 µM
15,COC(=O)C1(CO)NC(c2cccs2)C2C(=O)N(c3ccccc3)C(=O)C21 (centres undefined),inactive: > 76.9 µM
16,O=C1CNC(=O)N1Cc1ccc(Br)cc1,inactive: > 76.9 µM
17,Cc1[nH]c2ccccc2c1C(=O)COC(=O)C1CCC(=O)N1 (centres undefined),inactive: > 76.9 µM
18,Cc1n[nH]c(=O)nc1NCc1ccco1,inactive: > 76.9 µM
19,CC(C)C(=O)Nc1ccccc1N1CCN(S(C)(=O)=O)CC1,inactive: > 76.9 µM
20,CCOC(=O)N1CCC(NC(=O)CCC(=O)N2CC(C)Oc3ccc(C)cc32)CC1 (centres undefined),inactive: > 76.9 µM
21,COc1cc(NC(=O)C2CCCO2)c(C(=O)O)cc1OC (centres undefined),inactive: > 76.9 µM
22,Cn1cnnc1SCC(=O)Nc1sc2c(c1C(N)=O)CCC2,inactive: > 76.9 µM
23,O=C(Nc1nc2c(Cl)cccc2s1)c1ccc(Br)o1,inactive: > 76.9 µM

row,SMILES,Potency
1,O=C(Nc1cccc(F)c1)c1cc(S(=O)(=O)N2CCC(C(=O)O)CC2)ccc1F,inactive: > 76.9 µM
2,CC1CCN(C(=O)C2c3ccccc3C(=O)N3CCc4ccccc4C23)CC1 (centres undefined),inactive: > 76.9 µM
3,CC(=O)Nc1ccc(NC(=O)CSc2nnc(C3CC3)n2C)cc1,inactive: > 76.9 µM
4,O=C(NC1CCCCC1)c1ccc(S(=O)(=O)NCc2ccco2)cc1,inactive: > 76.9 µM
5,CC(C)c1ccc(NS(=O)(=O)c2ccc3[nH]cc(C(=O)N4CCC(C(N)=O)CC4)c(=O)c3c2)cc1,inactive: > 76.9 µM
6,COc1ccc(-c2nc3c(c(=O)n(C)c(=O)n3C)n2CC2CC(c3ccccc3)=NO2)cc1OC (centres undefined),inactive: > 76.9 µM
7,CCOC(=O)CS(=O)(=O)c1nc(-c2ccccc2)cc(C(F)(F)F)n1,inactive: > 76.9 µM
8,O=C(O)CNS(=O)(=O)c1cc(Cl)c(Cl)cc1Cl,inactive: > 76.9 µM
9,COc1cc(OC)nc(NC(=O)CSc2nnc(-c3ccccc3)n2C2CCCCC2)n1,inactive: > 76.9 µM
10,CCOC(=O)CSc1nc(C)c2cc(OC)ccc2n1,inactive: > 76.9 µM
11,O=C(CCn1cccc1)NCc1ccc(Cl)cc1,inactive: > 76.9 µM
12,Cc1ccc(CCNC(=O)C2CCN(c3nn4c(=O)cc(C)nc4s3)CC2)cc1,inactive: > 76.9 µM
13,COc1ccc(C2C(C(=O)NCc3ccccn3)c3cc(OC)c(OC)cc3C(=O)N2C)cc1 (centres undefined),inactive: > 76.9 µM
14,CCOC(=O)c1cc2n(c1C)-c1ccccc1C2=O,inactive: > 76.9 µM
15,COC(=O)C1=C(CN2CCSCC2)NC(=O)NC1c1cc(C)ccc1C (centres undefined),inactive: > 76.9 µM
16,O=c1cc(CSc2ccc(S(=O)(=O)N3CCCCC3)cn2)nc2sccn12,inactive: > 76.9 µM
17,CCC(CC)C(=O)Nc1cc(OC)c(OC)cc1C(=O)O,inactive: > 76.9 µM
18,Cc1ccc(-c2nnn(CC(=O)O)n2)cc1,inactive: > 76.9 µM
19,Cc1ccc(S(=O)(=O)N(C)CC(=O)N2CCN(C(=O)c3ccco3)CC2)cc1,inactive: > 76.9 µM
20,Cn1c(SCC(=O)c2ccc(F)cc2)nnc1-c1ccccc1N,inactive: > 76.9 µM
21,CCOC(=O)N1CCN(CC(O)COCC2=CCC3CC2C3(C)C)CC1 (centres undefined),inactive: > 76.9 µM
22,N#CCCN1CCN(S(=O)(=O)c2ccc(C#N)cc2)CC1,inactive: > 76.9 µM
23,CCOC(=O)c1c(P(=O)(N2CCOCC2)N2CCOCC2)noc1N,inactive: > 76.9 µM

row,SMILES,Potency
1,CCCn1c(SCC(=O)Nc2cc(C)on2)nc2c1c(=O)n(C)c(=O)n2C,inactive: > 76.9 µM
2,O=C(c1cccs1)N1CCC(c2nc(-c3ccc(S(=O)(=O)N4CCOCC4)cc3)no2)CC1,inactive: > 76.9 µM
3,Cc1ccc(NC(=O)NC(=O)CSc2nnnn2C)c(C)c1,inactive: > 76.9 µM
4,CCN1C(=O)CSc2ccc(C(=O)NCc3ccco3)cc21,inactive: > 76.9 µM
5,Cc1ccccc1Cn1nc(C)c(NC(=O)c2cc3nc(-c4ccco4)cc(C(F)(F)F)n3n2)c1C,inactive: > 76.9 µM
6,CCOc1cc(-c2ccc3c(c2)OCO3)cc(=O)c2c(C)oc(C)c12,inactive: > 76.9 µM
7,Cc1ccc(-c2nc(CSCC(=O)N3CCOCC3)c(C)o2)cc1,inactive: > 76.9 µM
8,O=C(NCc1cccnc1)c1cn(CCc2ccccc2)nn1,inactive: > 76.9 µM
9,CCCCn1c(C)nc2c(=O)n(C)c(=O)[nH]c21,inactive: > 76.9 µM
10,O=C(Cn1cnc2c(nnn2Cc2ccc(F)cc2)c1=O)N1CCN(c2ccccc2)CC1,inactive: > 76.9 µM
11,c1ccc(C(c2nnnn2Cc2cccs2)N2CCN(C3CCCC3)CC2)cc1 (centres undefined),inactive: > 76.9 µM
12,CCOC(=O)c1c(C)n(C)c2ccc(OCC(O)Cn3nc(C)c(Br)c3C)cc12 (centres undefined),inactive: > 76.9 µM
13,Cc1nc2ccccn2c1/C(O)=C1\C(=O)C(=O)N(CCN2CCOCC2)C1c1cccnc1 (centres undefined),inactive: > 76.9 µM
14,CCn1c(N)c(C(=O)NCC2CCCO2)sc1=S (centres undefined),inactive: > 76.9 µM
15,Cc1nc(SCc2ccccc2)c(C(F)(F)F)c(=O)[nH]1,inactive: > 76.9 µM
16,Nc1nc(Nc2cccc3ccccc23)nc(C2CCCC2=O)n1 (centres undefined),active: 1.52 µM
17,COc1ccccc1NC(=O)CSc1nnc(-c2ccco2)o1,inactive: > 76.9 µM
18,Nc1nc(-c2cccnc2)nn1S(=O)(=O)c1ccccc1,inactive: > 76.9 µM
19,Cc1cc(NC(=O)CSc2nnc(-c3ccco3)n2Cc2ccco2)no1,inactive: > 76.9 µM
20,O=C(Nc1ccc(-c2nc3ncccc3o2)cc1)c1ccc(Br)o1,inactive: > 76.9 µM
